Experimental data published in PubChem BioAssay AID624170 (National Center for Advancing Translational Sciences (NCATS), 2012).
Several values for one entry are separate records, joined by “and”; a condition that tells them apart may be missing. Identical values can stand only once. Hit rate of the full screen: of about 410,000 compounds, about 850 (0.21%) were called active. Inconclusive means that the source gave no clear call. Such entries were picked first, then a sample of the others. The call rests on the fitted dose curve; in most records, active means well fitted inhibition curve with a large enough effect; inconclusive means small, poorly fitted or top-dose-only effect, or another doubt; inactive means no such curve, though single readings can be large or run the other way. Where the call is inconclusive, the potency comes from a doubtful curve fit.
On the % scale 0 is the no-effect control and ±100 the full control effect; potency means the concentration at half of the fitted maximal effect; tags describe the fitted curve by direction and shape.

The compounds below were run against Glutaminase kidney isoform, mitochondrial (Homo sapiens) (UniProt O94925) (assay: qHTS for Inhibitors of Glutaminase (GLS)). Details: GLS enzymatic activity, qHTS titration; series mostly up to 45.5 µM; activity change, negative = inhibition: at the top concentration.
Chain of UniProt O94925 (O94925 whole entry, looked up, canonical isoform): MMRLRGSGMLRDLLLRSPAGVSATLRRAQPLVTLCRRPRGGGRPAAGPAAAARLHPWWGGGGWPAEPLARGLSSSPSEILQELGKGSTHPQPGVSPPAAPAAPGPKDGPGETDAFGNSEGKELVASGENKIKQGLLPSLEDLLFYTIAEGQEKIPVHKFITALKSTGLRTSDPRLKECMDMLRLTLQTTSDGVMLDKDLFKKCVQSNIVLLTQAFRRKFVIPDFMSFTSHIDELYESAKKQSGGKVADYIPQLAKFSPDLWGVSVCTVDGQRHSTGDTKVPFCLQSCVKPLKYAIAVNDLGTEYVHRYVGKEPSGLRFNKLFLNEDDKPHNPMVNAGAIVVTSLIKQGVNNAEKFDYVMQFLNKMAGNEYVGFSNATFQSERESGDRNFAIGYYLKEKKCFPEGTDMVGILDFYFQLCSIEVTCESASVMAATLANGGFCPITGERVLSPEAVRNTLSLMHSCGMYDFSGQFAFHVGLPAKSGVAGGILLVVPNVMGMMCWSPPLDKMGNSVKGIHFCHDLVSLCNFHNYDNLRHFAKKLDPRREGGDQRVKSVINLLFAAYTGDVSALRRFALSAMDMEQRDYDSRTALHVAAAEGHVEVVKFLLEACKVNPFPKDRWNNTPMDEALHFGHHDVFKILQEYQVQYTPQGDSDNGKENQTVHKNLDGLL
Procedure, shortened: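 hKGA in 45 mM KH2PO4 (pH 8.2), 0.02% Tween-20 with compound, then 1mM L-Glutamine (stock as added) plus glutamate oxidase/HRP/Amplex red coupling mix. Fluorescence read initially and after 30 min at RT; signal change reflects glutamate formation.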
With Cc1ccc2sc(C)[n+](CCO)c2c1 the Potency was inconclusive: 10 µM [inhibitor, partial curve]. In the case of COc1ccc(/C=N/Nc2nn3cnnc3c3ccccc23)cc1, the Potency is reported as inconclusive: 22.4 µM [inhibitor, single point]. For c1coc(CNC2CCCCC2)c1, the “activity change, negative = inhibition” value was inactive: -5.93%. COc1cccc(C2=Nn3c(nnc3-c3ccccc3O)SC2)c1 was tested, and the “activity change, negative = inhibition” value was inactive: 3.31%. In the case of Cc1ccc2nc(-c3ccc(NS(=O)(=O)c4ccccc4)cc3)sc2c1, the “activity change, negative = inhibition” value is reported as inactive: -7.87%. With CC(NC(=O)Cn1ccsc1=N)C12CC3CC(CC(C3)C1)C2 (stereo not drawn) the Potency was inconclusive: 35.5 µM [inhibitor, single point]. With Cn1c(N2CCN(C(=O)Nc3ccc(C(F)(F)F)cc3)CC2)nc2ccccc21 the Potency was inconclusive: 11.2 µM [inhibitor, single point]. With Cc1c(C(=O)OCC(=O)NC(C)c2ccccc2)oc2ccccc12 (stereo not drawn) the Potency was inconclusive: 35.5 µM [inhibitor, partial curve, poor fit]. For CCOc1cc(/C=C(\CC(=O)O)c2nc3ccccc3s2)ccc1OC, the Potency was inconclusive: 35.5 µM [inhibitor, single point]. With Cc1ccc(C)c(CN2CCC(CNC(=O)Nc3ccc(Cl)cc3)CC2)c1 the Potency was inconclusive: 35.5 µM [inhibitor, partial curve, poor fit]. For CCN1/C(=C/C(C)=C/c2sc3ccccc3[n+]2CC)Sc2ccccc21, the Potency was inconclusive: 12.6 µM [inhibitor, partial curve, poor fit]. For O=C(O)c1cccc(N/N=C/c2ccc(F)c(F)c2)c1, the Potency was inconclusive: 12.6 µM [inhibitor, partial curve]. For C=CCn1c(C)cc(-c2csc(NCC)n2)c1C, the Potency was inconclusive: 35.5 µM [inhibitor, single point]. In the case of CCOc1cc(N2CCOCC2)c(OCC)cc1NC(=O)CN1C(=O)C2CC=CCC2C1=O (stereo not drawn), the “activity change, negative = inhibition” value is reported as inactive: 8.76%. With Cc1ccc(C(=O)N/C(=C\c2ccc(-c3ccccc3[N+](=O)[O-])o2)C(=O)NCCCN(C)C)cc1 the “activity change, negative = inhibition” value was inactive: -3.26%. For Cc1cccc(N2C(N)=NC(N)=NC23CCCCC3)c1, the Potency was inconclusive: 35.5 µM [inhibitor, single point]. In the case of COc1cc(/C=N/NC(=O)c2nc3ccccn3c2C)cc(OC)c1O, the Potency is reported as inconclusive: 35.5 µM [inhibitor, single point]. For COc1ccc(CNC2CCCCC2C)c(OC)c1 (stereo not drawn), the “activity change, negative = inhibition” value was inactive: 4.18%. In the case of N#CC(C#N)=NNc1ccc([N+](=O)[O-])cc1, the “activity change, negative = inhibition” value is reported as inactive: 4.34%. NC(=O)N/N=C/c1sc(N2CCCCC2)nc1-c1cccs1 was tested, and the “activity change, negative = inhibition” value was inactive: 17.6%. With O=S(=O)(c1ccc(=S)[nH]c1)N1CCCC1 the Potency was inconclusive: 20 µM [inhibitor, single point]. For CCN(CC)S(=O)(=O)c1cccc(C(=O)NCC2CCCCC2)c1, the Potency was inconclusive: 35.5 µM [inhibitor, single point]. Nc1nc(N2CCN(c3cccc(Cl)c3)CC2)n[nH]1 was tested, and the Potency was inconclusive: 11.2 µM [inhibitor, partial curve]. O=C1CCC/C(=N/NC(=O)c2ccc(NS(=O)(=O)c3cccs3)cc2)C1 was tested, and the Potency was inconclusive: 11.2 µM [inhibitor, partial curve]. COc1ccc(Nc2nnc(-c3ccc(O)cc3)c3ccccc23)cc1 was tested, and the Potency was inconclusive: 11.2 µM [inhibitor, partial curve]. For CCCCNc1c(N)n(CC(C)C)c(=O)[nH]c1=O, the Potency was inconclusive: 17.8 µM [inhibitor, single point]. For COc1cc(-c2nc3ccc4ccccc4c3c3c2CCC3)ccc1O, the Potency was inconclusive: 12.6 µM [inhibitor, partial curve]. In the case of NS(=O)(=O)c1ccc(CCNC(=O)COC(=O)Cc2c(F)cccc2Cl)cc1, the “activity change, negative = inhibition” value is reported as inactive: 0%. In the case of COc1ccc(-c2cc(C(=O)NCCc3ccccc3)c3c(-c4ccccc4)[nH]nc3n2)cc1OC, the “activity change, negative = inhibition” value is reported as inactive: -5.6%. With COc1ccccc1CNC(=O)CC(C)C the Potency was inconclusive: 35.5 µM [inhibitor, single point]. With CCOC(=O)c1c(C)n(CC)c2c1cc(O)c1ccccc12 the Potency was inconclusive: 11.2 µM [inhibitor, partial curve]. With O=C(NC1CC1)c1ccc2nc([C@@H]3O[C@H](CO)[C@H](O)[C@H](O)[C@H]3O)[nH]c2c1 the Potency was inconclusive: 35.5 µM [inhibitor, single point]. In the case of O=[N+]([O-])c1cccc2ncccc12, the Potency is reported as inconclusive: 22.4 µM [inhibitor, single point]. With Cc1ccc(/C=C2\SC(=S)N(C3CCS(=O)(=O)C3)C2=O)o1 (stereo not drawn) the Potency was inconclusive: 17.8 µM [inhibitor, partial curve, poor fit]. In the case of CCCN(CCC)C(=O)Cn1c(=O)n(-c2ccc(CC)cc2)c(=O)c2ccc(C(=O)NCCc3ccccc3)cc21, the “activity change, negative = inhibition” value is reported as inactive: 1.27%. In the case of CCN1C(=O)/C(=C2/C=Cc3ccccc3N2CC)SC1=S, the “activity change, negative = inhibition” value is reported as inactive: 10.2%. O=C(Nc1cccc2ccccc12)ON=C1CCCCC1 was tested, and the Potency was inconclusive: 12.6 µM [inhibitor, partial curve]. In the case of Cc1cccc2cc(C#N)c(N3CCCC3)nc12, the Potency is reported as inconclusive: 35.5 µM [inhibitor, partial curve, poor fit]. O=C(COc1ccccc1)OCc1cc(=O)n2nc(C3CC3)sc2n1 was tested, and the Potency was inconclusive: 6.31 µM [inhibitor, partial curve, poor fit]. CC1CN(c2nc3c(c(=O)n(Cc4ccc(Cl)cc4)c(=O)n3C)n2C)CC(C)O1 (stereo not drawn) was tested, and the Potency was inconclusive: 11.2 µM [inhibitor, partial curve, poor fit]. With O=C(OCc1nnc(-c2ccccc2)o1)c1cc(S(=O)(=O)N2CCOCC2)c(Cl)cc1Cl the Potency was inconclusive: 28.2 µM [inhibitor, single point]. In the case of COc1ccccc1N1CCN(C(=O)C2CCN(S(=O)(=O)Cc3ccccc3)CC2)CC1, the “activity change, negative = inhibition” value is reported as inactive: 62.5%. For COc1cc(OC)cc(C(=O)NC(C)c2cnn(-c3ccccc3C)c2C)c1 (stereo not drawn), the Potency was inconclusive: 22.4 µM [inhibitor, single point]. COCc1nn2cc(-c3ccc(C)cc3)nc2s1 was tested, and the “activity change, negative = inhibition” value was inactive: -4.41%. For Cc1ccc(-c2nn(-c3ccccc3)cc2C2CC(c3ccccc3)=NN2C(=O)CCC(=O)O)cc1 (stereo not drawn), the Potency was inconclusive: 8.91 µM [inhibitor, partial curve, poor fit]. In the case of O=C(O)c1cc2nccc(-c3ccco3)n2n1, the Potency is reported as active: 11.2 µM. For CC(C)C(O)(C(=O)NNc1ccccc1)C(C)C, the Potency was active: 12.6 µM. In the case of Cc1ccc(NC(=O)CC2SC(=Nc3ccc(O)cc3)NC2=O)cc1 (stereo not drawn), the Potency is reported as inconclusive: 0.501 µM [inhibitor, full curve, poor fit]. With CCOc1ccc2nc(N/C(N)=N/C(=S)Nc3ccc(C)c(C)c3)nc(C)c2c1 the “activity change, negative = inhibition” value was inactive: 14.4%. For CN(C)c1nc(NN)nc(Nc2ccc(F)cc2)n1, the Potency was inconclusive: 15.8 µM [inhibitor, single point]. In the case of N=c1n(Cc2ccccc2)c2ccccc2n1CC(O)COc1ccc(Cl)cc1Cl (stereo not drawn), the Potency is reported as inconclusive: 17.8 µM [inhibitor, partial curve]. For CN1[C@@H]2CC[C@@H]1CC(OC(=O)[C@H](CO)c1ccccc1)C2 (stereo partly drawn), the “activity change, negative = inhibition” value was inactive: -8.61%. CCN(CC)CCCCNc1ncc2cc(-c3cc(OC)cc(OC)c3)c(NC(=O)NC(C)(C)C)nc2n1 was tested, and the “activity change, negative = inhibition” value was inactive: 7.83%. With CNCc1ccccc1Sc1cc(O)ccc1O the Potency was inconclusive: 35.5 µM [inhibitor, single point]. For Cc1nn(CCc2n[nH]c(=S)n2C2CCCCC2)c(C)c1Br, the Potency was inconclusive: 14.1 µM [inhibitor, partial curve, poor fit]. With COc1cc(/C=C(\C#N)C(=O)c2c[nH]c3ccccc23)cc(OC)c1O the Potency was inconclusive: 12.6 µM [inhibitor, single point]. Cc1ccc(-c2nn(-c3ccccc3)cc2/C=C2\SC(=S)N(CCCCCC(=O)O)C2=O)o1 was tested, and the Potency was inconclusive: 7.08 µM [inhibitor, partial curve, poor fit]. CCOC(=O)c1c(N)c2cc([N+](=O)[O-])ccc2n1C was tested, and the “activity change, negative = inhibition” value was inactive: -13.9%. With O=C(/C=C/c1ccc(Br)cc1)NC(=S)Nc1ccc(S(=O)(=O)Nc2nccs2)cc1 the Potency was inconclusive: 7.08 µM [inhibitor, partial curve]. For CCOC(=O)/C=C1\NC(C)(C)Cc2cc(OC)c(O)cc21, the Potency was inconclusive: 5.62 µM [inhibitor, single point]. COc1cc([N+](=O)[O-])c(OC)cc1SCc1n[nH]c(=S)n1-c1ccc(F)cc1 was tested, and the Potency was inconclusive: 11.2 µM [inhibitor, partial curve]. In the case of O=C(CN1C(=O)/C(=C\c2ccco2)SC1=S)Nc1ccc(O)cc1C(=O)O, the Potency is reported as inconclusive: 15.8 µM [inhibitor, single point]. In the case of CCOc1cc([N+](=O)[O-])cc(/C=C2/NC(=O)N(Cc3ccccc3F)C2=O)c1O, the Potency is reported as inconclusive: 11.2 µM [inhibitor, partial curve]. With COc1ccccc1NC1CCCCC1NS(=O)(=O)c1ccccc1 (stereo not drawn) the “activity change, negative = inhibition” value was inactive: 46%. With O=C(NC(=S)Nc1ccc(N2CCOCC2)cc1)c1cncc(Br)c1 the “activity change, negative = inhibition” value was inactive: 24.3%. For CCCNc1ccc(-c2nc(-c3ccccn3)no2)cc1[N+](=O)[O-], the Potency was inconclusive: 6.31 µM [inhibitor, partial curve, poor fit]. O=C(/C=C/c1ccc(O)c(O)c1)O[C@@H]1C[C@](O)(C(=O)O)C[C@@H](O)[C@H]1O was tested, and the Potency was inconclusive: 17.8 µM [inhibitor, single point] and inconclusive: 35.5 µM [inhibitor, single point]. With COc1cc(/C=C/C(=O)OCC(=O)Nc2cc(S(=O)(=O)N3CCCCC3)ccc2C)ccc1O the Potency was inconclusive: 20 µM [inhibitor, partial curve].
